Data as given in PubChem BioAssay AID1347430 (National Center for Advancing Translational Sciences (NCATS), 2020).
The campaign covered roughly 91,000 compounds. About 130 (0.14%) were called active. This list was built around the results that the source calls inconclusive (neither active nor inactive); the mix of calls is not that of the screen. Calls follow the shape of the dose curve; as a rule, active = well fitted inhibition curve with a large enough effect; inconclusive = small, poorly fitted or top-dose-only effect; inactive = flat fitted curve, though single readings scatter. A potency beside an inconclusive call is a rough fit, not a confirmed value.

system: Uracil-DNA glycosylase; experiment: Primary qHTS assay for inhibitors of Activation Induced Cytidine Deaminase (AID): UDG Counterscreen signal; conditions: FRET deamination/UDG coupled assay, UDG read, 4 h; series mostly up to 115 µM; also: nearly all actives have a fitted effect of over 65% in size
Text: Assay Provider (PI) Patricia Gearhart Ph.D.
National Institute on Aging
National Institute of Health (NIH), Bethesda, MD
Assay Provider (PI) Rahul Kohli Ph.D.
Perelman School of Medicine
University of Pennsylvania, Philadelphia, PA
Activation-Induced Deaminase (AID) is a cytosine deaminase which converts cytosine into uracil within stretches of ssDNA. The presence of uracil in DNA initiates a cascade of mutagenic DNA repair to introduce point mutations and DNA double strand breaks. Specific targeting of AID to the immunoglobulin heavy chain loci (Igh) promotes mutagenesis in the antibody variable region for somatic hypermutation (SHM) or switch regions leading to class switch recombination (CSR). However, AID also plays a role in accumulating unnecessary mutations across the genome. Mis-targeting of AID results in the initiation of tumor development and leads to greater drug resistance among cancer cells when continually expressed. To identify an AID inhibitor, a small molecule library will be screened in collaboration with NCATS core facility at NIH. To confirm biological function, inhibitors will be examined in an in vitro murine B-cell activation assay and subsequent secondary validation screens. Top molecules will be further screened to identify inhibitory efficacy against a wild type primary splenocytes assay. Using these approaches, we hope to identify a small molecule with great efficacy and low toxicity for use as a molecular probe to further characterize AID's intricacies, or even as a therapeutic.
A FRET based analysis of cytosine deamination, was developed to identify potential inhibitors of AID catalytic activity. This screen has two signal output, Read 1 evaluates the AID inhibition response. The second readout (Read 2) evaluates UDG response and is uses as a counterscreen to exclude false positive inhibitors. Inhibition in AID and inactivity in the UDG signal is the desired outcome for this assay.
SEQUENCE No. (e.g., 1, 2, 3, etc.); […] (e.g., Cells, Incubation, Reagent, etc.); VALUE; DESCRIPTION
1a; Reagent; 3 uL; [4/3x] 1 uM AID/2.67 U/mL UDG
1b; Reagent; 3 uL; 2 U/mL UDG
1c; Reagent; 3 uL; 1 uM AID
2a; Compound; 46 nL; Follow-up plates (0.64 uM - 10 mM)
2b; Control; 46 nL; ATA ([…] - 10 mM)
3; Time; 10 min; incubation at room temperature
5; Time; 4 hr; incubation at room temperature
6; Reagent; 4 uL; [2x] 250 mM NaOH
7; Time; 15 sec; centrifuge at 1000 rpm
8; Time; 30 min; incubation at room temperature
9a; Detection; fluorescence (Read 1: AID); EnVision (PerkinElmer) plate reader, 540 excitation and 590 emission filters
9b; Detection; fluorescence (Read 2: UDG); EnVision (PerkinElmer) plate reader, 560 excitation and 665 emission filters
NOTES (numbers refer to sequence above)
1a; Reagents were dispensed in a medium-binding black solid-bottom Greiner plates (789176F) using a BioRptr liquid dispenser. Dispense 3 uL of [4/3x] 1 uM AID (provided by Kohli lab) and [4/3x] 2 U/mL UDG (NEB M0280L) into columns 1, 2, 5 to 48.
1b; Dispense 3 uL of [4/3x] 2 U/mL UDG into column 3.
1c; Dispense 3 uL of [4/3x] 1 uM AID into column 4.
2a; Compound (7-points [uM] (0.64; 3.2; 16; 80; 400; 2,000; 10,000; 20,000) double pin-transferred (Dip Factor = 2) using the Kalypsys (Wako USA) pintool equipped with a 1536 pinhead for a final concentration range of 7.32 nM - 114 uM.
2b; 10 mM Aurintricarboxylic Acid (Sigma A1895) (ATA, 8-point, n = 2, 1:2.5 dilution in column 2) double pin-transferred (Dip Factor = 2) using the Kalypsys (Wako USA) pintool equipped with a 1536 pinhead for a [final] range of 186 nM - 114 uM.
3; Room temperature incubation.
4; Dispense 1 uL of substrate mixture from the Kohli lab [4x] […] DJC20 and [4x] 250 nM DJC23 into columns 1 to 48 .
5; Room temperature incubation.
6; Dispense 4 uL of substrate mixture [2x] 250 mM NaOH into columns 1 to 48.
7; Centrifugation step to remove bubbles.
8; Room temperature incubation
9a; Fluorescence signal (column label AID) was read using the EnVision plate reader. […]
Potency is read from the fitted curve at half-maximal effect; tags tell the direction and shape of the fitted curve.

SMILES | Potency
CCOC(=O)c1ccc(NC(=O)c2oc3c(c2C)-c2nn(Cc4ccccc4Cl)cc2CC3)cc1 | inconclusive: 39.8 µM [inhibitor, single point]
O=C(NCc1ccccc1)c1ccc(CS(=O)(=O)c2c(Cl)cccc2Cl)o1 | inconclusive: 89.1 µM [inhibitor, single point]
COc1ccc(CNC(=O)c2cnn(-c3ccccc3)c2-n2cccc2)cc1OC | inconclusive: 89.1 µM [inhibitor, single point]
O=C(CCc1ncc(-c2ccccc2)o1)Nc1ccc(O)c2ccccc12 | inactive
COC(=O)c1c(NC(=O)CCCOc2ccc(C)cc2)sc2c1CCCC2 | inconclusive: 89.1 µM [inhibitor, single point]
COc1ccc(CNC(=O)CC(C)CC2=NS(=O)(=O)c3ccccc3N2)cc1 (stereo not drawn) | inactive
Cc1c(C)c2ccc(OCC(=O)NCCN(C)C)c(C)c2oc1=O | inactive
Cc1cc(C)c(CNCCS(=O)(=O)c2ccccc2)c(C)c1 | inactive
COc1ccc(NC(=O)c2cccn2-c2nnc(N3CCCCC3)s2)c(OC)c1 | inconclusive: 89.1 µM [inhibitor, single point]
COc1ccccc1NC(=O)c1ccc(-c2nc(COc3ccc(C)cc3)c(C)o2)cc1 | inconclusive: 100 µM [inhibitor, partial curve, poor fit]
CCN1CCN(c2nc3c(S(=O)(=O)c4ccc(C)cc4)nnn3c3ccsc23)CC1 | inconclusive: 89.1 µM [inhibitor, single point]
Cn1c(=O)n(C)c2cc(N3CCOCC3)c(NC(=O)c3ccc(C(C)(C)C)cc3)cc21 | inconclusive: 89.1 µM [inhibitor, partial curve, poor fit]
O=S(=O)(Cc1ccccc1)C(Cl)(Cl)C(F)(F)C(F)(F)C(F)(F)C(F)F | inactive
CCOc1ccc(NC(=O)CCc2c(C)nc3nc(-c4cc(OC)cc(OC)c4)nn3c2C)cc1 | inactive
Cc1oc2cc(OCC(=O)NC(C)c3cccs3)ccc2c(=O)c1Oc1ccccc1 (stereo not drawn) | inactive
O=C(Nc1ccc(Cl)c(C(F)(F)F)c1)c1nc2ccccc2nc1N1CCCCC1 | inconclusive: 79.4 µM [inhibitor, partial curve, poor fit]
Fc1ccc(C(NCCc2ccc(Cl)cc2)c2nnc(-c3ccccc3Cl)o2)cc1 (stereo not drawn) | inconclusive: 79.4 µM [inhibitor, partial curve, poor fit]

SMILES | Potency
CC(=O)c1c(C)n(-c2ccccc2C)c2ccc(O)cc12 | inconclusive: 79.4 µM [inhibitor, single point]
COc1ccccc1Nc1ncc2c(n1)CCN(Cc1cc(F)cc(F)c1)C2 | inconclusive: 39.8 µM [inhibitor, single point]
Cc1cc(C)c(NC(=O)CSc2nc(=O)n(Cc3cccnc3)c3c2CCC3)c(C)c1 | inconclusive: 89.1 µM [inhibitor, single point]
Clc1cccc(-c2nc3ccccn3c2Nc2ccc3c(c2)OCCO3)c1 | inconclusive: 35.5 µM [inhibitor, partial curve, poor fit]
Cc1cccc(C(=O)Nc2cc3nn(-c4ccc(C(C)C)cc4)nc3cc2C)c1 | inactive
Cc1ccc(C(=O)NCC(c2cccs2)S(=O)(=O)c2ccccc2)cc1C (stereo not drawn) | inconclusive: 89.1 µM [inhibitor, single point]
Cc1ccc(NC(=O)Nc2cn(C)c(=O)c3ccccc23)c(Cl)c1 | inactive
COc1cccc(CNC(=O)c2cccc(-n3c(C)nc4cccnc43)c2)c1OC | inconclusive: 89.1 µM [inhibitor, single point]
Cc1ccc2oc(C(=O)Nc3ccc(C(N)=O)cc3)cc(=O)c2c1 | inactive
CCCOc1ccc(C2c3c(-c4c(C)cc(C)cc4O)n[nH]c3C(=O)N2CCO)cc1 (stereo not drawn) | inconclusive: 79.4 µM [inhibitor, partial curve, poor fit]
Cc1cc(=O)n(Cc2ccccc2)c2c1c(C)nn2C | inconclusive: 100 µM [inhibitor, single point]
COc1ccc(C2c3cccn3CCN2S(=O)(=O)c2c(C)cc(C)cc2C)cc1OC (stereo not drawn) | inconclusive: 89.1 µM [inhibitor, single point]
COc1cccc(C(=O)Nc2ccc3oc(-c4cccc(Br)c4)nc3c2)c1 | inactive
CN(Cc1ccccc1)c1ccc(-c2nc(-c3ccncc3)no2)cc1[N+](=O)[O-] | inconclusive: 89.1 µM [inhibitor, partial curve, poor fit]
Cc1ccccc1/C=C(/C#N)c1nc2ccccc2s1 | inactive
Fc1ccc(-n2ncc3c(Nc4cccc(Cl)c4)ncnc32)cc1 | inconclusive: 89.1 µM [inhibitor, single point]
